Results as given in paper PMC4336329 (PLoS ONE, 2015).
In all, about 310,000 compounds went through this assay and about 14,000 (4.5%) showed an effect of 50% or more. Effects have a minus sign here. This is one part of the list.

Target: human ether-à-go-go-related gene (hERG) potassium channel (human, UniProt Q12809)
Test: primary screen, population patch clamp on CHO cells stably expressing hERG
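Note: peak tail current of the secondary pulse compared with the same well before compound.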

Sequence of human ether-à-go-go-related gene (hERG) potassium channel (Q12809 whole entry, looked up): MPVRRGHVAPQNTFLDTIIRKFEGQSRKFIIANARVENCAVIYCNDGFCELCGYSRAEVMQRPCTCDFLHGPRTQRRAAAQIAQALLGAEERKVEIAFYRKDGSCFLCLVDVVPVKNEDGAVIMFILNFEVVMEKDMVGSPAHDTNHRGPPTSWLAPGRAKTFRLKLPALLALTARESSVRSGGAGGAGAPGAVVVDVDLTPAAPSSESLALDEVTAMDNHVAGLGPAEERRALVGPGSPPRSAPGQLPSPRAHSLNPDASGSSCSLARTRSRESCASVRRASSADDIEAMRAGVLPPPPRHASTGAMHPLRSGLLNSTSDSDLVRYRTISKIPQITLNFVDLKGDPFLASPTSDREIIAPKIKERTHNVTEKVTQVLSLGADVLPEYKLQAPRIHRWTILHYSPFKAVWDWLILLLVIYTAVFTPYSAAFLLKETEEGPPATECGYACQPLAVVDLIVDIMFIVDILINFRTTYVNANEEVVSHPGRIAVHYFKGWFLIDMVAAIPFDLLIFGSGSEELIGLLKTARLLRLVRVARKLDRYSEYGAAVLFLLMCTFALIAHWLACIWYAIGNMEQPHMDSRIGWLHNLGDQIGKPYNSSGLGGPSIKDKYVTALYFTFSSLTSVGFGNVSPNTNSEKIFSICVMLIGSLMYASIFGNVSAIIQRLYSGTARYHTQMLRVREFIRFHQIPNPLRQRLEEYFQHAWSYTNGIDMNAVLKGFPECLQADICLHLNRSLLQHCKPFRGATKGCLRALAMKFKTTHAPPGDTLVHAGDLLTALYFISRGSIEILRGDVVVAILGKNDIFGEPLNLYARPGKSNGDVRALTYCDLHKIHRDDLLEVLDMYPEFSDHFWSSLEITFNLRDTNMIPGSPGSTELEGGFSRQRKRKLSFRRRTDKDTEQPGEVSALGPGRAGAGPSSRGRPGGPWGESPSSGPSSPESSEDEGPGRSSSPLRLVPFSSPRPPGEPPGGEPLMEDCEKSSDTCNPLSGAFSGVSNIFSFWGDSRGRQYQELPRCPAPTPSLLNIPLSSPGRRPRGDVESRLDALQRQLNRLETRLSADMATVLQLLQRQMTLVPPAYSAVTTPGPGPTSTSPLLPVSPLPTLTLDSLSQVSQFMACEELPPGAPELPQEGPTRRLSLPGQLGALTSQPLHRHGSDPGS

| SMILES | hERG current change (%, negative = inhibition) at 10uM |
| --- | --- |
| Cc1ccc(NC(=O)CCn2cnc3cc(C)c(C)cc32)cc1 | -8.26% |
| O=C(c1ccccc1)c1ccncc1 | -2.74% |
| C=C(C)Cc1c(C)c(C#N)c2nc3ccccc3n2c1N1CCCCC1 | 5.89% |
| C=CCn1c(=O)c(C(=O)Nc2ncccc2O)c(O)c2ccccc21 | 4.9% |
| CCN(Cc1nc2ccccc2c(=O)[nH]1)Cc1cc(=O)oc2cc(OC)ccc12 | -51.1% |
| O=C(Oc1ccc2c(=O)c(Oc3ccc4ccccc4c3)coc2c1)c1ccco1 | -3.89% |
| CN(Cc1ccccc1)S(=O)(=O)c1ccc(Cl)c(C(=O)O)c1 | 9.33% |
| N=C1/C(=C\c2ccc(OC(=O)c3ccc(F)cc3)cc2)C(=O)N=C2SC(N3CCCC3)=NN12 | 7.96% |
| Cc1cc2ccccc2nc1SCC(=O)NC1CCCC1 | -7.01% |
| Cn1cc2cc([N+](=O)[O-])ccc2n1 | -5.35% |
| CN(C[C@H](Cc1ccccc1)N(CCN(CCc1ccccc1)N=O)N=O)N=O.[Na+] | -17.7% |
| CN(C)S(=O)(=O)N1CCC(Oc2cccc(C(=O)N3CCCCCC3)c2)CC1 | 0.0377% |
| CC[n+]1c(C)sc2cc(OC)ccc21.[I-] | 31.4% |
| Cc1cccc(NC(=O)Nc2ccc(C)cc2Br)c1 | 20.5% |
| Cn1c(SCC(=O)c2cc3ccccc3o2)nnc1-c1ccccc1 | -16.1% |
| Cc1ccc(N2C(=O)C3CC3C2=O)cc1 (stereo not drawn) | -1.25% |
| CC(=O)Nc1ccc(C)cc1NC(C)=O | 24.3% |
| CC1CCN(C(=O)CSc2nc(N)cc(N)n2)CC1 | -4.5% |
| Cc1cc(-c2ccc(C)c(S(=O)(=O)Nc3ccc(S(N)(=O)=O)cc3)c2)on1 | 5.12% |
| COCCn1c(SCC(=O)Nc2sc(C)c(C)c2C#N)nnc1C(C)C | -3.62% |
| O=c1[nH]c(Cc2ccc(F)cc2)nc2scc(-c3ccc(F)cc3)c12 | 25.6% |
| Cc1cc(C)n2nc3nc(N4CCCC4)nc(-c4ccccc4)c3c2n1 | 7.37% |
| NC(=O)C1(N2CCCCC2)CCN(C(=O)c2cccs2)CC1 | 5.87% |

| SMILES | hERG current change (%, negative = inhibition) at 10uM |
| --- | --- |
| O=C(COC(=O)CCc1ccccc1)NCc1ccccc1 | 11% |
| CC(=O)c1ccc(NC(=O)C(C)n2c3ccccc3c3nc(=O)cc(C)n32)cc1 (stereo not drawn) | -9.3% |
| C/C(=N\NC(=O)c1nn(C)c(C)c1Br)c1ccc(NC(=O)c2ccc(C)s2)cc1 | -1.3% |
| CC1(C)C(C=C(Cl)Cl)C1C(=O)Nc1ccc([N+](=O)[O-])cc1 (stereo not drawn) | 18.9% |
| CC(=O)/C(=N/Nc1ccccc1C)N1CCOCC1.Cl | 4.07% |
| O=C(CSc1ncn[nH]1)NN(c1ccccc1)c1ccccc1 | -4.47% |
| CSc1ccccc1NC(=O)CN1CCCCC1C (stereo not drawn) | 0.324% |
| O=C(CCn1c2c(c3ccccc31)CCCC2)NNC(=O)c1ccccc1Cl | 3.1% |
| COc1ccc(C)cc1NC(=O)C(OC(=O)c1ccc(Cl)c(S(=O)(=O)N(C)c2ccccc2)c1)c1ccccc1 (stereo not drawn) | -0.711% |
| FC(F)(F)c1ccc(-n2ccnc2)nc1 | -5.26% |
| Cc1cccc(-c2nc3ccccc3c(=O)n2-n2cccc2)c1 | -34.6% |
| CCN(CC(=O)Nc1ccccc1C(F)(F)F)C(=O)CCS(=O)(=O)c1ccc(C)cc1 | 10% |
| CCOC(=O)C1=C(CN2CCSCC2)NC(=O)NC1c1cc(C)ccc1C (stereo not drawn) | -2.22% |
| CCN(CC)S(=O)(=O)c1cccc(NC(=O)CCNC(=O)c2ccccc2Cl)c1 | -22.6% |
| CN(C)C=NC(=O)c1cn(-c2ccc(F)cc2)c(=O)c2ccccc12 | 15.1% |
| Cc1ccc(Nc2nc3ccccc3n3cnnc23)cc1Cl | 12.1% |
| COc1ccc(/C=N/N2CCN(Cc3ccccc3)CC2)cc1 | -2.63% |
| Cc1ccc(-c2nc(NC(=O)c3nn(C)cc3[N+](=O)[O-])sc2C)cc1 | -11.7% |
| COc1cccc(-n2c(SCC(=O)N3CCOCC3)nnc2-c2c[nH]c3ccccc23)c1 | 5.14% |
| CCN1C(=O)N(C)C2(c3ccccc3)N(C)C(=O)N(C)C12c1ccccc1 (stereo not drawn) | 2.96% |
| COc1ccc(CCNC(=O)C2CC3Cn4c(nc5cc(Cl)c(Cl)cc54)C3N2C)cc1 (stereo not drawn) | -23.5% |
| COc1ccc(C2=Nn3c(nnc3-c3ccco3)SC2)cc1OC | -54.1% |
